Measured values published in the supplement of paper PMC8512760.
Where a name gives a salt, the structure may show the parent alone. Some of the results follow. Repeats are few or missing, and single values can be far off.

How the values were obtained:
Experiment in all cases: cell viability relative to vehicle (% of vehicle); basal-like triple-negative breast cancer lines; higher = less cytotoxic
Settings in all cases: 10 µM; 72 h
[1] = test system: HCC-1143
[2] = test system: HCC-1187
[3] = test system: MDA-468
[4] = test system: SUM-149
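Note: stably firefly luciferase-GFP labeled cells in 96-well plates, viability read as luciferase photon flux after d-luciferin addition, treated wells normalized to vehicle wells, single-dose high-throughput screen.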

| SMILES | cell viability [1] | cell viability [2] | cell viability [3] | cell viability [4] |
| --- | --- | --- | --- | --- |
| COc1cc(Nc2ncc(F)c(Nc3ccc4c(n3)N(COP(=O)([O-])[O-])C(=O)C(C)(C)O4)n2)cc(OC)c1OC.[Na+].[Na+] [R788 disodium] | 41.3 | 52.2 | 27.8 | 39.3 |
| CC(=O)N1CCN(c2ccc(OCC3COC(Cn4ccnc4)(c4ccc(Cl)cc4Cl)O3)cc2)CC1 (single isomer, unassigned; (+)) [(+)-Ketoconazole] | 121 | 71.9 | 124 | 129 |
| COc1cc(C(C)=O)ccc1OCCCN1CCC(c2noc3cc(F)ccc23)CC1 [Iloperidone] | 88.2 | 74.5 | 88.9 | 125 |
| CCOC(=O)C1=C[C@]2(CC)CCCN3CCc4c(n1c1ccccc41)[C@@H]32 [Vinpocetine] | 67.9 | 98.2 | 114 | 109 |
| CC(C)OC(=O)C(C(=O)OC(C)C)=C1SC=CS1 [Malotilate] | 80.6 | 82.4 | 81 | 90.7 |
| O=NN(CCCl)C(=O)NCCCl [Carmustine] | 135 | 90.8 | 81.6 | 121 |
| NCC(=O)CCC(=O)O [5-Aminolevulinic acid HCl] | 120 | 121 | 94.1 | 102 |
| Clc1ccc(C(Cn2ccnc2)OCc2ccsc2Cl)c(Cl)c1 (stereo not drawn) [Tioconazole] | 97.8 | 79.3 | 97.6 | 103 |
| CC(=O)OCC(=O)NCCCOc1cccc(CN2CCCCC2)c1.Cl [Roxatidine Acetate HCl] | 115 | 119 | 111 | 130 |
| Nc1cccc2c1C(=O)N(C1CCC(=O)NC1=O)C2=O (stereo not drawn) [Pomalidomide (CC-4047)] | 93.7 | 73.7 | 82.7 | 118 |
| Cc1[nH]c(C=C2C(=O)Nc3ccccc32)c(C)c1CCC(=O)O [TSU-68 (SU6668,Orantinib)] | 84.5 | 92.7 | 73 | 123 |
| CC(C)NCC(O)c1ccc(NS(C)(=O)=O)cc1.Cl (stereo not drawn) [Sotalol hydrochloride] | 112 | 110 | 110 | 133 |
| Cc1cccn2c(=O)c(-c3nnn[n-]3)cnc12.[K+] [Pemirolast potassium] | 102 | 101 | 103 | 112 |
| COc1cc2c(Nc3ccc(Br)cc3F)ncnc2cc1OCC1CCN(C)CC1 [Vandetanib (ZD6474)] | 51 | 54.5 | 66.4 | 31.2 |
| C[N+](C)(C)CCO.[Cl-] [Choline Chloride] | 69.1 | 99.1 | 91.4 | 90.1 |
| CC(C)(Oc1ccc(Cl)cc1)C(=O)O [Clofibric Acid] | 68.8 | 98.2 | 100 | 84.4 |
| COc1cc(C(=O)NC2CCCNC2)cc(OC)c1OC (stereo not drawn) [Troxipide] | 70.7 | 85.7 | 106 | 124 |
| Cl.O=C(CCCN1CCC(O)(c2ccc(Cl)cc2)CC1)c1ccc(F)cc1 [Haloperidol hydrochloride] | 101 | 80.2 | 132 | 95.7 |
| COc1ccc(Cl)cc1C(=O)NCCc1ccc(S(=O)(=O)NC(=O)NC2CCCCC2)cc1 [Glibenclamide] | 79.1 | 86.5 | 134 | 120 |
| NC(=O)Cc1cccc(C(=O)c2ccccc2)c1N [Nepafenac] | 99.7 | 104 | 105 | 101 |
| CC(=O)OC1(C(C)=O)CCC2C3CC(C)C4=CC(=O)CCC4(C)C3CCC21C (stereo not drawn) [Medroxyprogesterone acetate] | 79.7 | 114 | 110 | 122 |
| O=c1nc[nH]c2c1ncn2C1CCC(CO)O1 (stereo not drawn) [Didanosine] | 85.2 | 98.5 | 101 | 114 |
| CC(=O)Nc1cccc(-n2c(=O)n(C3CC3)c(=O)c3c(Nc4ccc(I)cc4F)n(C)c(=O)c(C)c32)c1 | 131 | 64.3 | 116 | 85.8 |
| CCC1OC(=O)C(C)C(OC2CC(C)(OC)C(O)C(C)O2)C(C)C(OC2OC(C)CC(N(C)C)C2O)C(C)(O)CC(C)C(=O)C(C)C(O)C1(C)O (stereo not drawn) [Erythromycin] | 92.6 | 85.3 | 68.2 | 103 |
| Cc1ccc(F)c(NC(=O)Nc2ccc(-c3cccc4[nH]nc(N)c34)cc2)c1 [Linifanib (ABT-869)] | 99.5 | 64.2 | 88.6 | 130 |
| CO[C@H]1/C=C/O[C@@]2(C)Oc3c(C)c(O)c4c(O)c(c5c(nc6cc(C)ccn65)c4c3C2=O)NC(=O)/C(C)=C\C=C\[C@H](C)[C@H](O)[C@@H](C)[C@H](O)[C@@H](C)[C@H](OC(C)=O)[C@@H]1C [Rifaximin (Xifaxan)] | 84.5 | 110 | 107 | 107 |

| SMILES | cell viability [1] | cell viability [2] | cell viability [3] | cell viability [4] |
| --- | --- | --- | --- | --- |
| Cc1nc2c([nH]1)CCN(C(=O)c1ccc(NC(=O)c3ccccc3-c3ccccc3)cc1)c1ccccc1-2.Cl [Conivaptan HCl] | 93.2 | 96.7 | 96.7 | 92.5 |
| NCC1OC(OC2C(CO)OC(OC3C(O)C(N)CC(N)C3OC3OC(CO)C(O)C(O)C3N)C2O)C(N)C(O)C1O.O=S(=O)(O)O (stereo not drawn) [Paromomycin Sulfate] | 91.9 | 92.4 | 105 | 90.7 |
| CC(NCCc1ccc(O)cc1)C(O)c1ccc(O)cc1.Cl (stereo not drawn) [Ritodrine HCl] | 82.1 | 102 | 143 | 93.3 |
| CCCc1cc(=O)[nH]c(=S)[nH]1 [Propylthiouracil] | 86.2 | 85.4 | 102 | 113 |
| CC(=O)c1cc2c(o1)C(=O)c1ccccc1C2=O [Napabucasin] | 24.1 | 19.2 | 32.2 | 28.9 |
| COCCCCC(=NOCCN)c1ccc(C(F)(F)F)cc1.O=C(O)C=CC(=O)O [Fluvoxamine maleate] | 107 | 98.5 | 96.9 | 83.4 |
| CCCCNC(=O)NS(=O)(=O)c1ccc(C)cc1 [Tolbutamide] | 80.1 | 82.3 | 103 | 106 |
| CC1=C(C(=O)O)N2C(=O)C(NC(=O)C(N)c3ccccc3)C2SC1 (stereo not drawn) [Cephalexin] | 65.4 | 89.8 | 98.7 | 67.6 |
| CCN(CC)CC#CCOC(=O)C(O)(c1ccccc1)C1CCCCC1 (stereo not drawn) [Oxybutynin] | 96 | 111 | 123 | 97.7 |
| CN(CC/C=C1C2=CC=CC=C2C=CC3=CC=CC=C3\1)C.Cl [Cyclobenzaprine HCl] | 72.6 | 87.8 | 114 | 77.3 |
| COC(=O)C1=C(C)NC(C)=C(C(=O)OC)C1c1ccccc1[N+](=O)[O-] [Nifedipine] | 78.1 | 83.8 | 96.1 | 128 |
| COc1ccc(CN2CCN(C(c3ccc(F)cc3)c3ccc(F)cc3)CC2)c(OC)c1OC.Cl.Cl [Lomerizine HCl] | 72 | 87.5 | 101 | 76.9 |
| O=C(NCC1CN(c2ccc(N3CCOCC3=O)cc2)C(=O)O1)c1ccc(Cl)s1 (stereo not drawn) [Rivaroxaban] | 82.9 | 75.2 | 78.4 | 106 |
| CC(=O)c1c(C)c2cnc(Nc3ccc(N4CCNCC4)cn3)nc2n(C2CCCC2)c1=O.Cl | 106 | 93.6 | 103 | 120 |
| Cc1cc2c(cc1S(N)(=O)=O)S(=O)(=O)CCC2 [Meticrane] | 64.8 | 86.6 | 106 | 106 |
| Cl.Cl.O=C(O)COCCN1CCN(C(c2ccccc2)c2ccc(Cl)cc2)CC1 (stereo not drawn) [Cetirizine DiHCl] | 74.3 | 71.9 | 96.6 | 131 |
| Cc1cccc(Nc2ccccc2C(=O)O)c1C [Mefenamic Acid] | 87.8 | 77.7 | 108 | 106 |
| CC(O)C(=O)O.CCOc1ccc2nc3cc(N)ccc3c(N)c2c1.O [Ethacridine lactate monohydrate] | 46.3 | 28.3 | 50.5 | 87.5 |
| CCCc1nn(C)c2c(=O)nc(-c3cc(S(=O)(=O)N4CCN(C)CC4)ccc3OCC)[nH]c12 [Sildenafil] | 65.5 | 93 | 87.2 | 75.6 |
| C=CC(=O)Nc1cccc(Nc2nc(Nc3ccc(N4CCN(C(C)=O)CC4)cc3OC)ncc2C(F)(F)F)c1 | 22.7 | 16.4 | 18.9 | 29.3 |
| CO[C@H]1C(=O)[C@]2(C)[C@@H](OC)C[C@H]3OC[C@@]3(OC(C)=O)[C@H]2[C@H](OC(=O)c2ccccc2)[C@]2(O)C[C@H](OC(=O)[C@H](O)[C@@H](NC(=O)OC(C)(C)C)c3ccccc3)C(C)=C1C2(C)C [Cabazitaxel] | 83.9 | 26.8 | 71.5 | 185 |
| Cl.c1ccc2c(CC3=NCCN3)cccc2c1 [Naphazoline HCl] | 79.4 | 111 | 99.9 | 92.3 |
| Cl.NCCc1ccc(O)c(O)c1 [Dopamine HCl] | 97.7 | 114 | 108 | 117 |
| CC(C=CC1=C(C)CCCC1(C)C)=CC=CC(C)=CC(=O)O [Tretinoin (Aberela)] | 131 | 105 | 145 | 133 |
| COc1ccc(C2CNC(=O)C2)cc1OC1CCCC1 (stereo not drawn) [S- (+)-Rolipram] | 113 | 65.5 | 98.7 | 108 |
| O=c1oc2c(O)c(O)cc3c(=O)oc4c(O)c(O)cc1c4c23 [Ellagic acid] | 92.4 | 112 | 91.7 | 112 |
